Measured values published in US20240352066A1, “ANTIMICROBIAL COMPOUNDS AND THE METHOD OF USE” (priority 2021, published 2024).
Values after ≈ are worked out from the molar mass of the structure shown. At least one peptide structure holds a part that was inferred or is arguable (an end, a ring closure or a residue). Where a SMILES comes first, the peptide text is derived from it. [ ]: non-standard residue; d: D form. N(tridecyl)Gly = CCCCCCCCCCCCCNCC(=O)O; Gly(N-2-aminoethyl) = NCCNCC(=O)O; Gly(N-cHex) = O=C(O)CNC1CCCCC1; Nlys = NCCCCNCC(=O)O

Key:
C. neoformans [1] = conditions: RMG8-8, previously published (Green et al. 2021); cited from earlier work
C. albicans = conditions: RMG8-8, previously published (Green et al. 2021); cited from earlier work
[2] = test system: Enterococcus faecium ATCC 6569; assay type: cell-based; conditions: 24 hours
Procedure: (§1) The minimum inhibitory concentration (MIC) of peptoids against the ESKAPE bacteria (Enterococcus faecium ATCC 6569; Staphylococcus aureus ATCC 29213; Klebsiella pneumoniae ATCC 13883; Acinetobacter 55aumannii ATCC 19606; Pseudomonas aeruginosa ATCC 25619; Enterococcus faecalis ATCC 29212; and Escherichia coli ATCC 25922) was determined following CLSI guidelines (CLSI. Methods for Dilution Antimicrobial Susceptibility Tests for Bacteria That Grow Aerobically, 11th Edition. (Clinical and Laboratory Standards Institute, 2018). The MIC against Mycobacterium smegmatis was also determined following CLSI guidelines (Woods et al., Susceptibility Testing of Mycobacteria, Nocardiae, and Other Aerobic Actinomycetes, 2nd edition. (2011)). Colonies picked from streaked tryptic soy agar plates were added to tryptic soy broth (TSB) to achieve a turbidity of OD600=0.08-0.15. Inoculant was diluted 1:200 into cation adjust Mueller Hinton Broth (CAVHB) and 90 μL was plated into each well of a 96 well black-wall plate. 2-fold serial dilutions of 10× peptoid (10 μL) were added to each well in triplicate and incubated at 37° C. for 24 hours for the ESKAPE bacteria and 72 hours for M. smegmatis. Tetracycline (20 μg/mL) was used as a positive control with DI water was used as a vehicle control. Following incubation for the ESKAPE bacteria, PrestoBlue (10 μL) was added to each well and incubated at 37° C. for one hour before measuring fluorescence on a SpectraMax M5 plate reader (Ex. 555 nm; Em. 585 nm). Following incubation for M. smegmatis, wells were scored following CLSI guidelines to determine MIC. This assay was repeated three times on separate days.

[3] = test system: Staphylococcus aureus ATCC 29213; assay type: cell-based; conditions: 24 hours
Procedure: as §1

[4] = test system: Enterococcus faecalis ATCC 29212; assay type: cell-based; conditions: 24 hours
Procedure: as §1

C. neoformans [5] = conditions: RMG8-8, previously published results (Green et al. 2021); cited from earlier work
C. neoformans [6] = assay: Time to kill assay (killing kinetics); assay type: cell-based, Cryptococcus neoformans
C. albicans biofilm = assay type: cell-based, Candida albicans; conditions: established biofilms, 24 hours
Procedure: Plates were incubated overnight at 37° C. Media was gently removed and gently washed three times with PBS. RPMI-MOPS (198 μL) were added to each well. 2-fold serial dilutions of 100× peptoid solutions were prepared in water and 2 μL of peptoid were added to each well in triplicate then incubated at 37° C. for 24 hours. PrestoBlue (20 μL) was added to each well and incubated at 37° C. for one hour before measuring fluorescence on a SpectraMax M5 plate reader (Ex. 555 nm; Em. 585 nm).

SMILES: CCCCCCCCCCCCCNCC(=O)N(CC(=O)N(CCCCN)CC(=O)N(CCN)CC(=O)N(CC(N)=O)C1CCCCC1)C1CCCCC1 [RMG8-8, Ntri-Ncha-Nlys-Nae-Ncha] (H-[N(tridecyl)Gly][Gly(N-cHex)][Nlys][Gly(N-2-aminoethyl)][Gly(N-cHex)]-NH2)
- t1/2 of fungal killing (C. neoformans [1]): 6.5 min
- MIC C. albicans (C. albicans): 25 µg/mL (≈ 32.8 µM)
- MIC E. faecium [2]: 6.25 µg/mL (≈ 8.19 µM)
- MIC S. aureus [3]: 6.25 µg/mL (≈ 8.19 µM)
- MIC E. faecalis [4]: 6.25 µg/mL (≈ 8.19 µM)
- C. neoformans MIC (C. neoformans [5]): 1.56 µg/mL
- time to complete elimination of viable cells (C. neoformans [6]; C. neoformans in YPD broth, 4× the MIC): ≤ 1 h
- fungicidal or fungistatic (growth recovery after peptoid washed away) (C. neoformans [6]; YPD plates): likely fungicidal and not fungistatic
- MIC C. albicans biofilm (MBIC) (C. albicans biofilm): 100 µg/mL (≈ 131 µM)
